Experimental data: the supplement of paper PMC10126150
Values marked as one replicate rest on one cluster of the flow cell; about a third of the high ones do not repeat.

Tested on: ATP
Experiment: switch fluorescence ratio, 500 uM ATP over buffer (Cy3 cluster intensity, sum of 5 cycles each) (fold (ratio)); higher = stronger signal-on switching upon ATP binding; sequences stand for … in TCGTCGGCAGCGTCAGATGTGTATAAGAGACAGTTTTTTTTTTTTTTTTTTTTTTTTT…TC
Details: aptamer strand: ATP DNA aptamer (quencher-CACCTGGGGGAGTATTGCGGAGGAAGG + anchor), 100 nM annealed; ATP concentration: 500 uM; one replicate
Method in brief: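 Between each of five buffer/ATP cycles, the flow-cell was stripped with NaOH and re-annealed. Each cycle imaged Cy3-labelled switching-strand clusters, annealed to 100 nM quencher-labelled ATP aptamer on a modified Illumina MiSeq flow-cell, first in selection buffer and then after 15 min with 500 uM ATP at 22 °C. The fluorescence ratio is summed target-cycle over summed buffer-cycle Cy3 intensity per cluster, averaged per switch-domain sequence, with clusters outside 100-1000 RFU excluded.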
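Further: ATP exposure 15 min at 22 °C before imaging.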

Row | Sequence | switch fluorescence ratio
1 | GCGCCCGCAG | 1.15
2 | CTGCTGACCT | 1.11
3 | TAAAGAAGAC | 1.07
4 | GGGTGCGCCC | 0.98
5 | TAGTGCGCA | 0.921
6 | AGGATCCTCC | 0.996
7 | GTTACAGACA | 1.08
8 | TTTTAGCTTT | 1.11
9 | GGGTGTGTAA | 1.01
10 | GCACTTTGG | 0.998
11 | CATTACGTGG | 0.966
12 | CATGGCGGGG | 1.03
13 | GGCTGAGGTG | 1.13
14 | TTGCTAGCGT | 1.04
15 | ATCCCGGTGT | 1.65
16 | TAACAGTTGG | 0.994
17 | ATATGTGGT | 0.962
18 | GAGGGCCGA | 1
19 | TGAATATAAA | 0.95
20 | AAGGCTGAAA | 1.02
21 | GTTATATACA | 1.05
22 | CGTCTTTGG | 1.02
23 | AGTAAAGAGA | 1.05
24 | TCGTTGAGAT | 1.04
25 | GGTGCCAGAC | 1.08
26 | TGAACTTATG | 1.01

Row | Sequence | switch fluorescence ratio
27 | TTTCGGACTT | 1.11
28 | AGCTGCGGTT | 0.978
29 | TTTGTTCACC | 0.966
30 | TGAAAACAGC | 0.97
31 | GATCCCTTTT | 0.986
32 | GGCTCAGTAG | 1.01
33 | CCTATGCCGA | 1.04
34 | AAGTGATAGT | 1
35 | CCGTCTGAGG | 1.01
36 | GGGTTACCGC | 0.997
37 | GATAGTGGCG | 0.975
38 | GATTACTC | 1.04
39 | AGTATCGCGG | 1.01
40 | GCAAGCTAAA | 1.18
41 | CTGGGAGTTT | 0.916
42 | ATCGTTCCGT | 1.01
43 | ACGCAGTCCT | 1.06
44 | TAATGGAGCC | 0.98
45 | CGAAGGCAGC | 1.36
46 | AAATTGCGAT | 1.02
47 | GCTCCAGCTC | 1.6
48 | AGGATGCTAG | 0.997
49 | GTCCCCTGTG | 2.08
50 | TTGGACGCGG | 1.04
51 | AGGGCACTCG | 1.02
52 | TGCTAGTATG | 0.983

Row | Sequence | switch fluorescence ratio
53 | CGGGGCCGAT | 1.02
54 | AATAAGTAGT | 0.983
55 | ATAGTCACCG | 1.07
56 | GAGAGTGACG | 0.99
57 | CTGTAGGCGA | 1.32
58 | GTGGGAAGG | 1.03
59 | GCATGTTTAA | 1.01
60 | CGACAGTGAA | 1.06
61 | GCTTACAGGG | 0.997
62 | AAAATGTACA | 1.04
63 | ACGCCCGTGT | 0.992
64 | TGCTCTCATG | 1.01
65 | TGGGCCTGTA | 1.01
66 | CGCCCTGAGG | 1.05
67 | TTTCAAGCGG | 1.01
68 | TCGTGTCTCA | 1.02
69 | ATAAAAGGTT | 0.999
70 | GCTGAATGTT | 1.01
71 | TATGAAGGAA | 1.01
72 | CTATGGAACT | 1.06
73 | AGGAGATAGT | 1
74 | GTGGAATTAT | 1
75 | ACCTTGCATG | 1.02
76 | GTGCTGATAG | 0.992
77 | AGGCCGTGT | 0.95
78 | ACAAAGGCAT | 1

Row | Sequence | switch fluorescence ratio
79 | ACCCGATGCC | 1.16
80 | TGCAGACGAA | 1
81 | GGGCCAAGTT | 0.948
82 | GATTACATTA | 1.01
83 | TGCCTGGGAC | 0.994
84 | ACGACGTGTG | 0.981
85 | GACGGAATGA | 2.76
86 | GTGCCGACTG | 1.02
87 | ACCTTAGACG | 1.12
88 | TAGTTGATTA | 1.01
89 | TTAGACACGG | 1.04
90 | ATTTTTCG | 1.03
91 | GATGTGGGGA | 0.997
92 | TGAGGTCCAG | 0.989
93 | TCCACTGGGC | 1.07
94 | GCTCGGATTT | 1.02
95 | AGTTATAACT | 1.58
96 | TCCTAATCTC | 0.992
97 | AGACAGCAAT | 2.73
98 | TCAATCCAC | 1.07
99 | ATTCAACCG | 1.03
100 | GAAATGTCTT | 0.957
101 | ATCCACGCAA | 1.08
102 | TTTTCTT | 0.999
103 | CACTGGGATA | 1.02
104 | ACTACACTGG | 1.4

Row | Sequence | switch fluorescence ratio
105 | GTTTGTGAAA | 0.939
106 | CGTTCGAGCG | 1.01
107 | GGAGTGTGTA | 1.02
108 | TAACCACTGC | 1.11
109 | CAGGCTACGC | 1.01
110 | ACATTGCAGG | 0.989
111 | CCATCAATTG | 1.01
112 | GGCAGAAGGA | 0.99
113 | CCTTGTGACT | 0.986
114 | GTTCTGGGTC | 1.01
115 | ACGGTCAATT | 1.04
116 | GTGGGATGGT | 0.989
117 | TGTTAGGTTT | 0.988
118 | ATGGAGGACA | 1.02
119 | AAACGATCGT | 0.974
120 | TAATCTGAAA | 1.07
121 | TTCGTCTAGT | 0.997
122 | GAGCAAAGAG | 1.36
123 | TCCAAGCCTG | 1.05
124 | CAGGATCTTA | 1.03
125 | TTTGGGCAGG | 1.01
126 | CAAGGTGACG | 0.991
127 | ACCTCCCTTC | 1.82
128 | CAGCGAGGCG | 1.06
129 | CGTCACACCT | 1.19
130 | CGTCTATGCC | 1

Row | Sequence | switch fluorescence ratio
131 | CTACCTCGTG | 1.04
132 | AGACTAATGG | 1.04
133 | GGGATGCCGA | 0.972
134 | CGCCCTGGGC | 1.03
135 | TGTAAGCTAT | 1.01
136 | GAATGGTTGG | 0.998
137 | TTCCCCATAG | 1.1
138 | CTAACGACGA | 1.26
139 | TTGGTGCCAA | 1.02
140 | GTCATTAATT | 1.01
141 | ATATCGAGTG | 1.01
142 | CTTGCAGAAA | 1.01
143 | AGTGTGCCTT | 0.96
144 | TGAGTAAGAT | 1.02
145 | CGCCGCGCGG | 0.962
146 | GTGCTAAAGG | 0.97
147 | ATTAACCTAG | 1.03
148 | ATGAGTCCTG | 0.959
149 | CTTTTATGCT | 0.988
150 | TTGGTTATGA | 1.03
151 | TTAGTGCGCA | 0.999
152 | TCGGTGCATG | 1.04
153 | GGGAAACA | 1
154 | CTACAGTGAC | 1.19
155 | CACACGGGGT | 1.2
156 | CGTTAGGCGA | 0.994

Row | Sequence | switch fluorescence ratio
157 | ATGTGTCACA | 0.973
158 | ACACTTAGGT | 1.04
159 | AGCGCATAAT | 1
160 | GGCTTCAATA | 1
161 | TCATATGCCC | 1
162 | GCCGGGACCC | 0.989
163 | GTGTCCGCTA | 2.17
164 | CAGACAATAT | 1.45
165 | GCATGGAATT | 0.961
166 | TGGGACACTT | 1.05
167 | GCGTGCGCAG | 1.04
168 | CAAGGGTACG | 1.06
169 | ACCATTCGTC | 1.01
170 | GAGTCTGGAC | 1.05
171 | TTCGAAATCG | 1.02
172 | AGCGGGCACG | 0.986
173 | CAGGAACTAT | 0.944
174 | GAATTAGAGG | 0.982
175 | ATGATATGAT | 0.998
176 | GGGCCCCC | 1.04
177 | GATAGGGAAT | 1
178 | CATCTGTCAT | 1.3
179 | CATGAGGCAT | 1.04
180 | CAGAGTCAGG | 1.02
181 | GACGTAAGAT | 1.74
182 | AGACTAATTG | 0.989

Row | Sequence | switch fluorescence ratio
183 | GTGGAATCTA | 1.02
184 | TCAGGGATTT | 0.955
185 | AGGGGGTGCA | 1.05
186 | AGTGATAACC | 1.03
187 | CAACCCCAGA | 1.22
188 | TCCACGTTGA | 1.06
189 | GCATAGTTAG | 1.01
190 | CATCAGCT | 1.12
191 | CGAATCGTGG | 0.974
192 | GGCAGCACGA | 1.1
193 | GGATCGGGG | 0.998
194 | ACACGAGCAG | 1.07
195 | ACTTAGGGGC | 1.06
196 | ACCGAAGAGG | 1.03
197 | ATGTGTTGAG | 1
198 | TTTTGTAGTA | 0.959
199 | CGAGAAATT | 0.986
200 | GGCCAGCTAT | 0.96
201 | CCGAACCTTT | 1.12
